# Results taken from PubChem BioAssay AID1030 (National Center for Advancing Translational Sciences (NCATS), 2008).
# “And” between values parts separate entries of the source, which are not always exact repeats. Equal values may be shown once. About 16,000 (7.3%) of roughly 220,000 compounds were called active. This list was built around the results that the source calls inconclusive (neither active nor inactive); the mix of calls is not that of the screen. Calls come from the whole dose curve; as a rule, active = well fitted inhibition curve with a large enough effect (not every such curve was filed as active); inconclusive = small, poorly fitted or top-dose-only effect, or another doubt; inactive = no such curve, though single readings can be large or run the other way. A potency beside an inconclusive call is a rough fit, not a confirmed value.
# Target: Aldehyde dehydrogenase 1A1 (Homo sapiens) (UniProt P00352)
# Experiment: qHTS Assay for Inhibitors of Aldehyde Dehydrogenase 1 (ALDH1A1)
# Settings: Purified ALDH1A1, NADH fluorescence, propionaldehyde substrate; series mostly up to 75.3 µM
# Potency is the fitted concentration of half-maximal effect; tags give direction and shape of the fitted curve.
# Sequence of UniProt P00352 (P00352 whole entry, looked up): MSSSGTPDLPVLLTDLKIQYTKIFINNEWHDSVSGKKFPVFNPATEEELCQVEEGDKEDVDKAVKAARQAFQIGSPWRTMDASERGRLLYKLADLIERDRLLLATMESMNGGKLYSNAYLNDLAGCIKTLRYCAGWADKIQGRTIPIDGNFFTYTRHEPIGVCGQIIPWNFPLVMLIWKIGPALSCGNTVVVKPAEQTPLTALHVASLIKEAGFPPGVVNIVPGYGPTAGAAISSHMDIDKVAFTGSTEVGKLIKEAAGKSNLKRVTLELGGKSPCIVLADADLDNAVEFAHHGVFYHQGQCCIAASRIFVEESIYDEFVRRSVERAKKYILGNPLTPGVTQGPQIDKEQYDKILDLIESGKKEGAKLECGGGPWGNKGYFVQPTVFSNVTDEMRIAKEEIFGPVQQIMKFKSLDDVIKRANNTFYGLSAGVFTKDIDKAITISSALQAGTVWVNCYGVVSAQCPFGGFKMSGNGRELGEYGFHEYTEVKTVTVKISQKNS
row,SMILES,Potency
1,COc1ccc2cc3cc(C(=O)NCCN4CCN(Cc5ccccc5)CC4)oc3nc2c1,"inconclusive: 22.4 µM [inhibitor, partial curve]"
2,Cc1cc(C)c(S(=O)(=O)N2CCN(C(=O)N(C)C)CC2)c(C)c1,active: 4.47 µM
3,COc1ccc(-n2c(CNc3ccc(C)cc3)nnc2SCC(=O)Nc2nc(-c3ccccc3)cs2)cc1,inactive
4,O=C(CC1C(=O)NCCN1Cc1cccc(Oc2ccccc2)c1)NCCc1cscn1 (configuration not stated),"inconclusive: 44.7 µM [inhibitor, single point]"
5,COc1ccc(OC)c(C(=O)COC(=O)CNC(=O)C2CCCCC2)c1,inactive
6,Cn1ccc2cc(NC(=O)Nc3cccnc3)ccc21,inactive
7,CC(NCc1cccc(S(=O)(=O)N(C)C)c1)c1ccc(F)cc1 (configuration not stated),"inconclusive: 35.5 µM [inhibitor, single point]"
8,Cc1ccc(NCC(=O)N=Nc2c(O)n(C)c3ccccc23)cc1,"inconclusive: 28.2 µM [inhibitor, partial curve]"
9,CCN1C(=O)/C(=C/c2c(C)nn(C)c2C)SC1=S,active: 1.41 µM
10,COc1ccc(C(C)=O)cc1CSc1nnc(-c2ccccc2O)n1-c1ccccc1,"inconclusive: 31.6 µM [inhibitor, partial curve]"
11,Nc1nnc(CCc2ccccc2)s1,inactive
12,CCOC(=O)NN1C(=O)c2ccccc2NC1C (configuration not stated),"inconclusive: 25.1 µM [inhibitor, partial curve]"
13,N#Cc1c(/N=C/N2CCOCC2)sc2c1CCCCC2,active: 14.1 µM
14,O=C(c1cc(C2CC2)on1)N1CCN(c2ccccc2)CC1,active: 28.2 µM
15,CN(CC(=O)N1CCc2ccccc21)S(=O)(=O)c1ccc(Br)s1,inactive
16,O=C(/C=C/c1cccc([N+](=O)[O-])c1)NCCSCc1ccc(Cl)cc1,active: 22.4 µM
17,CN(Cc1cc(=O)n2ccsc2n1)C1CCCCC1,"inconclusive: 39.8 µM [inhibitor, single point]"
18,Cc1noc(C)c1COc1cccc(C(=O)N2CCc3ccccc32)c1,"inconclusive: 25.1 µM [inhibitor, partial curve]"
19,COC(=O)c1sc2nc3c(cc2c1N)C(=O)CC(C)(C)C3,active: 0.891 µM
20,O=c1cc(O)c2c(=O)n(-c3ccccc3)c3c(c2o1)CCCCCC3,inactive
21,COc1ccc(CCNC(=O)C2CCN(S(=O)(=O)N3CCOCC3)CC2)cc1OC,"inconclusive: 39.8 µM [inhibitor, single point]"
22,Cc1ccc(N2CCN(C(=S)c3ccc(-c4cccc([N+](=O)[O-])c4)o3)CC2)cc1,active: 3.16 µM
23,O=C(c1ccc(Cl)cc1)c1oc2ccccc2c1CS(=O)c1ccc(Cl)cc1 (configuration not stated),active: 3.98 µM
24,CCN(Cc1ccccc1)S(=O)(=O)c1ccc2oc(C(=O)O)c(C)c2c1,inactive

row,SMILES,Potency
1,CCN(CC)S(=O)(=O)c1ccc2[nH]cc(C(=O)NCCCN3CCCCC3)c(=O)c2c1,"inconclusive: 39.8 µM [inhibitor, single point]"
2,COc1ccccc1N1CCN(C2CCN(S(=O)(=O)c3ccc(NC(C)=O)cc3)CC2)CC1,inactive
3,COc1ncnc2c1N[C@@](C)(O)c1c(F)c(F)c(F)c(F)c1S2,"inconclusive: 39.8 µM [inhibitor, single point]"
4,CC(=O)[C@]1(O)Cc2c(O)c3c(c(O)c2[C@@H](O[C@H]2C[C@H](N)[C@H](O)[C@H](C)O2)C1)C(=O)c1ccccc1C3=O,"inconclusive: 28.2 µM [inhibitor, single point]"
5,S=C(NCc1cccs1)Nc1cccc(Cl)c1,inactive
6,NNc1ccc2c(C(F)(F)F)cc(C(F)(F)F)nc2n1,"inconclusive: 28.2 µM [inhibitor, partial curve]"
7,O=C(NN=c1c(=O)c2ccccc2c1=O)c1ccccc1,"inconclusive: 12.6 µM [inhibitor, partial curve]"
8,COc1ccc(OCC(O)CNC(=O)c2ccc(OC)cc2)cc1 (configuration not stated),"inconclusive: 39.8 µM [inhibitor, single point]"
9,Cc1ccnc(-n2c(C)cc(C=O)c2C)c1,"inconclusive: 39.8 µM [inhibitor, single point]"
10,CCOC(=O)C1C(=O)OC2(CCCCC2)C1C(=O)OCC (configuration not stated),"inconclusive: 39.8 µM [inhibitor, single point]"
11,CCOC(=O)c1c(C)[nH]c(O)c1C=Nc1ccc(C(F)(F)F)cc1,"inconclusive: 39.8 µM [inhibitor, single point]"
12,COc1ccccc1C1N(c2ccc(Cl)cc2)C(=O)C2CCCN21 (configuration not stated),"inconclusive: 35.5 µM [inhibitor, single point]"
13,O=C(Nc1ccc2c(c1)S(=O)(=O)N=C1CCCCCN12)c1ccccc1Cl,"inconclusive: 6.31 µM [inhibitor, partial curve]"
14,COc1ccc(CCNC(=O)CCn2c(SCC#N)nc3ccccc3c2=O)cc1OC,active: 20 µM
15,Cc1cccc(N2C(=O)CC(Sc3nc(-c4ccccc4)c4cc(Cl)ccc4n3)C2=O)c1 (configuration not stated),"inconclusive: 35.5 µM [inhibitor, single point]"
16,Cc1cc(NCCCn2ccnc2)n2c(nc3ccccc32)c1C#N,"inconclusive: 31.6 µM [inhibitor, partial curve]"
17,CC(=O)Nc1nonc1-n1nnc(C(=O)NCc2ccccc2)c1C,active: 11.2 µM
18,Cc1ccccc1OCCOc1ccccc1C=C(C#N)C#N,active: 3.55 µM
19,C[n+]1c2n(c3ccccc31)N=C(c1ccccc1)CS2,"inconclusive: 39.8 µM [inhibitor, single point] and inconclusive: 28.2 µM [inhibitor, single point]"
20,O=C(OCn1ncc(Br)c(Br)c1=O)c1ccc(F)cc1,active: 0.0891 µM
21,Cc1ccc(N(C)C(=O)c2ccc3c(Cl)c4c(nc3c2)CCC4)cc1C,"inconclusive: 35.5 µM [inhibitor, single point]"
22,CCNc1ncc2nc(-c3ccccc3)c(=O)n(C3CC3)c2n1,"inconclusive: 25.1 µM [inhibitor, partial curve]"
23,OCc1nc2ccccc2n1CC(O)Cn1ccc2ccccc21 (configuration not stated),active: 22.4 µM
24,Cc1c(C)n(CC(O)CN2C(=O)c3ccccc3S2(=O)=O)c2ccccc12 (configuration not stated),active: 14.1 µM

row,SMILES,Potency
1,Oc1[nH]c(=S)sc1/C=C1\C(c2ccccc2)=Nc2ccccc21,"inconclusive: 14.1 µM [inhibitor, partial curve]"
2,Nc1nc(CN2CCN(Cc3ccccc3)CC2)nc(Nc2ccc3c(c2)OCCO3)n1,"inconclusive: 28.2 µM [inhibitor, single point]"
3,COC(=O)[C@@H]1C[C@@H]2CC[C@@H](O)C[C@@H]2N1Cc1ccc(N2CCN(C)CC2)cc1,"inconclusive: 39.8 µM [inhibitor, single point]"
4,COc1ccc(C(=O)N/C(=C\c2ccco2)C(=O)NCCCn2ccnc2)cc1,inactive
5,Cn1c(=O)c(-c2ccc(F)cc2)nc2cnc(OCc3ccccc3)nc21,"inconclusive: 20 µM [inhibitor, partial curve]"
6,CC(=O)Nc1ccc(-c2nc(C)c(C(C)=O)n2O)cc1,"inconclusive: 37.7 µM [inhibitor, single point]"
7,CN(C)C(=O)c1nc2ccc(Cl)cn2c1CN1CCCC(OCc2ccccc2)C1 (configuration not stated),inactive
8,O=[N+]([O-])c1cccc(N/N=C/c2cccc(O)c2O)c1,"inconclusive: 37.7 µM [inhibitor, single point]"
9,CN(CCc1ccccn1)C(=O)c1nn2c(C(F)(F)F)cc(-c3ccco3)nc2c1Cl,active: 25.1 µM
10,Cn1c(NC(=O)CCC2CCCCC2)cc(=O)n(C)c1=O,"inconclusive: 7.08 µM [inhibitor, partial curve]"
11,Cc1cc(=O)oc2c1c(C)nn2-c1ccc(Br)cc1,"inconclusive: 39.8 µM [inhibitor, single point]"
12,Nc1nc(-c2ccccn2)nc(N)c1Cc1ccc(Cl)cc1Cl,inactive
13,COc1ccc(S(=O)(=O)NC(C)(C)C)cc1-c1nnc2c3ccccc3c(C)nn12,inactive
14,Cc1ccc(C(=O)NN(CCC(=O)NC(C)(C)C)C2=NS(=O)(=O)c3ccccc32)cc1,inactive
15,CC(=O)c1cc(C(=O)N2CCc3c([nH]c4ccccc34)C2C2CCCCC2)[nH]n1 (configuration not stated),"inconclusive: 39.8 µM [inhibitor, single point]"
16,CCCN=C(C)C1=C(O)c2ccccc2C1=O,"inconclusive: 39.8 µM [inhibitor, single point]"
17,COc1ccccc1-c1nc(C#N)c(N2CCN(Cc3ccccc3)CC2)o1,"inconclusive: 28.2 µM [inhibitor, partial curve]"
18,Cc1ccc(OCCN2CCN(C(=O)CCC(=O)Nc3nnc(C(C)C)s3)CC2)cc1,"inconclusive: 39.8 µM [inhibitor, single point]"
19,Fc1ccc(COc2ccccc2C(=S)N2CCCC2)cc1,active: 7.94 µM
20,CCc1nc2ccccc2n1CCC(C)C,inactive
21,O=C(c1cc2ccccc2oc1=O)N(Cc1cccs1)Cc1ccccc1Cl,"inconclusive: 44.7 µM [inhibitor, single point]"
22,Cc1ccc(C)c(S(=O)(=O)Nc2ccc(O)cc2)c1,"inconclusive: 39.8 µM [inhibitor, single point]"
23,O=C(O)C(=O)/C(=C\c1ccccc1)c1ccc2ccccc2n1,"inconclusive: 7.08 µM [inhibitor, partial curve]"
24,CN(C)c1ncc2nc(-c3ccc(Cl)cc3)c(=O)n(Cc3ccc(F)cc3)c2n1,"inconclusive: 11.2 µM [inhibitor, partial curve]"
